Values marked as one replicate rest on one cluster of the flow cell; about a third of the high ones do not repeat.
Test system: ATP
Test: switch fluorescence ratio, 500 uM ATP over buffer (Cy3 cluster intensity, sum of 5 cycles each) (fold (ratio)); higher = stronger signal-on switching upon ATP binding; sequences stand for … in TCGTCGGCAGCGTCAGATGTGTATAAGAGACAGTTTTTTTTTTTTTTTTTTTTTTTTT…TC
Conditions: aptamer strand: ATP DNA aptamer (quencher-CACCTGGGGGAGTATTGCGGAGGAAGG + anchor), 100 nM annealed; ATP concentration: 500 uM; one replicate
How it was run: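 Imaging in selection buffer was followed by imaging after 15 min with 500 uM ATP at 22 °C, for Cy3-labelled switching-strand clusters annealed to 100 nM quencher-labelled ATP aptamer on a modified Illumina MiSeq flow-cell. Five of these buffer/ATP cycles ran, separated by NaOH stripping and re-annealing. The fluorescence ratio per cluster is summed target-cycle over summed buffer-cycle Cy3 intensity, averaged per switch-domain sequence; clusters outside 100-1000 RFU were removed.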
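Also: ATP exposure 15 min at 22 °C before imaging.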

ACAGTGTGCA
switch fluorescence ratio: 0.988

CCCGTGCCGG
switch fluorescence ratio: 0.976

GCGGTCGCAG
switch fluorescence ratio: 1.01

AATTATTTCT
switch fluorescence ratio: 1.05

GCGATATGTA
switch fluorescence ratio: 1.03

CGCTTAAGAT
switch fluorescence ratio: 1.02

ACTATGTCCC
switch fluorescence ratio: 1.04

TATTCTCAGG
switch fluorescence ratio: 1.07

ATCGTTGCTA
switch fluorescence ratio: 0.99

CTGAGTACTG
switch fluorescence ratio: 1.12

CCGTTGACGG
switch fluorescence ratio: 1.01

CATGTTGCTT
switch fluorescence ratio: 0.987

GATATGGAAC
switch fluorescence ratio: 0.968

GTTATAAGCC
switch fluorescence ratio: 0.991

GGACACGGAA
switch fluorescence ratio: 1.12

CCGGTTTTAG
switch fluorescence ratio: 1.05

TCAGAACACG
switch fluorescence ratio: 1.05

AATGAGTTAT
switch fluorescence ratio: 0.989

CGAAGGACTA
switch fluorescence ratio: 1.03

TTGGGAGTG
switch fluorescence ratio: 0.918

CGGCTCTGCT
switch fluorescence ratio: 1.01

GAGATTCGCG
switch fluorescence ratio: 0.981

TCGTCTAGA
switch fluorescence ratio: 1.01

GGACTGGAGT
switch fluorescence ratio: 1

TTCGCGAAGG
switch fluorescence ratio: 1.01

TGGCTTGACT
switch fluorescence ratio: 0.981

GGCCTACCCC
switch fluorescence ratio: 1.05

CTGGACACCA
switch fluorescence ratio: 0.997

GCTGAAATGG
switch fluorescence ratio: 0.993

GTGAATAGCC
switch fluorescence ratio: 0.933

AGGGTCTGGT
switch fluorescence ratio: 0.976

AATCATTACG
switch fluorescence ratio: 0.935

GCTGCGTTCT
switch fluorescence ratio: 1.04

TTGAGATAAC
switch fluorescence ratio: 0.976

GATTCGAGCG
switch fluorescence ratio: 1.03

AAACGCGGCA
switch fluorescence ratio: 1.08

TGGTCAAG
switch fluorescence ratio: 0.982

TTGGATACT
switch fluorescence ratio: 1.27

GTTCATGCCA
switch fluorescence ratio: 1.02

CCTTTGGGGC
switch fluorescence ratio: 0.995

TCTAGTAGGT
switch fluorescence ratio: 0.994

TTGAAAACGT
switch fluorescence ratio: 1.04

CTTGACTCAG
switch fluorescence ratio: 1

GGGTTGTGGC
switch fluorescence ratio: 0.976

CTGTCTAAAG
switch fluorescence ratio: 1.05

AGTGCGATAA
switch fluorescence ratio: 1.19

GCCACTGACC
switch fluorescence ratio: 1.18

CGTCAGGATA
switch fluorescence ratio: 0.997

TCCGTTGGTC
switch fluorescence ratio: 1.09

CAGGGGATTC
switch fluorescence ratio: 1

CGACGCTTGG
switch fluorescence ratio: 2.21

AGAATGTCGG
switch fluorescence ratio: 0.986

GCAATGGGCC
switch fluorescence ratio: 1.63

CATCTACGGC
switch fluorescence ratio: 1.05

CCCTGGCTGT
switch fluorescence ratio: 1.17

TGAGGGTCTG
switch fluorescence ratio: 1.02

AACGTACTCG
switch fluorescence ratio: 1.53

ACTATCGGCT
switch fluorescence ratio: 1.01

AGTCTGGTAT
switch fluorescence ratio: 0.99

CCCGGAATTG
switch fluorescence ratio: 1.38

AAAGCGCCT
switch fluorescence ratio: 1.01

CGGATTTTT
switch fluorescence ratio: 1.02

ACGGAACTAG
switch fluorescence ratio: 1.17

ACAGGCAGCT
switch fluorescence ratio: 0.993

TAAGGTAGAG
switch fluorescence ratio: 1.04

GCACGCTATT
switch fluorescence ratio: 1.25

TCTTGCTAGC
switch fluorescence ratio: 0.989

CAACCTACTA
switch fluorescence ratio: 1.17

TGAAACTCGC
switch fluorescence ratio: 1.04

TAAAGGATAG
switch fluorescence ratio: 1.02

ACCTTACAGC
switch fluorescence ratio: 1.51

GCATGTTTCG
switch fluorescence ratio: 1

ATGTTGGAGA
switch fluorescence ratio: 1.02

GGTAGTTGGA
switch fluorescence ratio: 0.992

AGGACTAGGT
switch fluorescence ratio: 0.985

CCGGATTTGA
switch fluorescence ratio: 0.996

ATGGCCGTCA
switch fluorescence ratio: 1

AATGTTTCAT
switch fluorescence ratio: 0.97

CATACGCTGT
switch fluorescence ratio: 1.94

TTGAGGTCAG
switch fluorescence ratio: 0.941

AGGTCCTCCG
switch fluorescence ratio: 1.97

TGGCTCATGC
switch fluorescence ratio: 0.934

GGGCCCAAAC
switch fluorescence ratio: 0.977

TAACTCGAAT
switch fluorescence ratio: 1.01

TTTGTTCGCT
switch fluorescence ratio: 1.01

TGCGTTATCC
switch fluorescence ratio: 1.04

TACCGTGATG
switch fluorescence ratio: 1

TCAGATGCAC
switch fluorescence ratio: 1.18

ATGGATTTCT
switch fluorescence ratio: 0.991

GTTTGCTTTA
switch fluorescence ratio: 1.03

TCTGTTTAAG
switch fluorescence ratio: 0.94

TACTAAGGGA
switch fluorescence ratio: 1.02

AAAAGCGGAA
switch fluorescence ratio: 0.992

GGGGCTCGCA
switch fluorescence ratio: 1.02

ATAATAACAT
switch fluorescence ratio: 1.02

TCCTGATTAC
switch fluorescence ratio: 1.26

TTCAGTGAGA
switch fluorescence ratio: 0.997

TGGTCCGACA
switch fluorescence ratio: 1.05

GCAGCTTTAG
switch fluorescence ratio: 1.07

GGTGTCGTAA
switch fluorescence ratio: 1.02

AGACACTCT
switch fluorescence ratio: 1.04

CAGGTAAAAT
switch fluorescence ratio: 1.02

TGACTAGACC
switch fluorescence ratio: 1.07

GGTTAGGATT
switch fluorescence ratio: 1.03

GTTTAGCTAT
switch fluorescence ratio: 1.03

CTTAGGGGGG
switch fluorescence ratio: 1

GCGGGGAATA
switch fluorescence ratio: 0.982

TTGAAACGTG
switch fluorescence ratio: 0.947

TTAGGGTGAC
switch fluorescence ratio: 1.01

GATCCTATTT
switch fluorescence ratio: 0.963

TGTAAGCTGC
switch fluorescence ratio: 1.04

CAGAGTTATC
switch fluorescence ratio: 0.964

GAATATGTGA
switch fluorescence ratio: 0.994

TCTTGGCTCC
switch fluorescence ratio: 1.06

TTCCAAACGT
switch fluorescence ratio: 1.05

CCATGATTGG
switch fluorescence ratio: 1.02

GATGAAACAA
switch fluorescence ratio: 1.01

TTATAAATTA
switch fluorescence ratio: 0.992

TTCTGGGACA
switch fluorescence ratio: 1.05

ATAAGATTTG
switch fluorescence ratio: 0.981

TAGTGTCGGG
switch fluorescence ratio: 0.97

CCCATTTAAC
switch fluorescence ratio: 1.04

CCAACTGGTG
switch fluorescence ratio: 3.77

CTTCGATATT
switch fluorescence ratio: 1.01

CCCGCACCAG
switch fluorescence ratio: 2.01

ATGTGATGTT
switch fluorescence ratio: 0.977

CGCTTCCCAA
switch fluorescence ratio: 1.54

GACTCGTAAC
switch fluorescence ratio: 1.33

GCAACGGCTG
switch fluorescence ratio: 1.01

CGTTTCGGGA
switch fluorescence ratio: 0.993

CTGGTGATCT
switch fluorescence ratio: 1.01

TGAAATCGAG
switch fluorescence ratio: 2.99

TCATGGTATC
switch fluorescence ratio: 0.978

TAGACGCGCA
switch fluorescence ratio: 1.04

GAAAAATTGC
switch fluorescence ratio: 0.959

ATGGTAAACT
switch fluorescence ratio: 1.06

CATGCTAGGA
switch fluorescence ratio: 0.943

CGCTTTATAT
switch fluorescence ratio: 1.11

CGTTGTGGTC
switch fluorescence ratio: 1.01

GAGTTTCTGC
switch fluorescence ratio: 1.08

TCTGTTCCGA
switch fluorescence ratio: 1.11

CAGTCGGGGC
switch fluorescence ratio: 1

GGAATGCTCA
switch fluorescence ratio: 1.45

CCATCGGGCC
switch fluorescence ratio: 1.1

GACCTAACTG
switch fluorescence ratio: 1.04

ACCCAAAGA
switch fluorescence ratio: 1.08

CAGACTGTCC
switch fluorescence ratio: 1.05

GATACATATT
switch fluorescence ratio: 1.01

TGATGTATTT
switch fluorescence ratio: 0.973

CCGGGTGGAC
switch fluorescence ratio: 1.43

TTATGATCGG
switch fluorescence ratio: 1.01

TTGGGGTTT
switch fluorescence ratio: 0.988

CGCGAGTGAG
switch fluorescence ratio: 1.07

ATTCAACGTG
switch fluorescence ratio: 0.98

TATAATCCGC
switch fluorescence ratio: 0.994

ATACTTACGG
switch fluorescence ratio: 1.58

TCATATGCAC
switch fluorescence ratio: 1.62

GACGCCCCAG
switch fluorescence ratio: 1.02

CCATAGTTTC
switch fluorescence ratio: 1.19

ATGCACCGGT
switch fluorescence ratio: 0.981

GACTTTGCCC
switch fluorescence ratio: 1.02

GGCGGCGGAA
switch fluorescence ratio: 1.02

GCGTCTTAAA
switch fluorescence ratio: 0.958

TACGGATGGC
switch fluorescence ratio: 0.936

GTTTCGGTT
switch fluorescence ratio: 0.955

ATGAAACACG
switch fluorescence ratio: 0.988

ACGTAGTTAT
switch fluorescence ratio: 1.02

ATAATTGCTG
switch fluorescence ratio: 0.932

CTATTCGGCG
switch fluorescence ratio: 0.991

GGTGTGTTCC
switch fluorescence ratio: 1.07

AGATGTACAG
switch fluorescence ratio: 0.998

AGCTTAGGCT
switch fluorescence ratio: 1.06

GGCTCAAACG
switch fluorescence ratio: 0.972

CAAAGTCCCA
switch fluorescence ratio: 0.99

AATGGGTGT
switch fluorescence ratio: 1.01

TCGCATATA
switch fluorescence ratio: 1.19

TGAGCGAAAC
switch fluorescence ratio: 0.969

CATGGGTCGA
switch fluorescence ratio: 1

TATTATGTGT
switch fluorescence ratio: 1.07

ACCGGGCACG
switch fluorescence ratio: 1.04

ACCCATTATT
switch fluorescence ratio: 1.03

CACTCTAAGG
switch fluorescence ratio: 1.04

TGAGTTAT
switch fluorescence ratio: 1.02

GTGGACGGAC
switch fluorescence ratio: 0.967

TGTCCAAGGA
switch fluorescence ratio: 1.02

ATGGTATATG
switch fluorescence ratio: 0.984

GAAGTTGTGG
switch fluorescence ratio: 0.977

AAGCGGGGCG
switch fluorescence ratio: 1.03

ATCGTTTAGC
switch fluorescence ratio: 0.998

ACTCTTGCCT
switch fluorescence ratio: 1.07

ATCTGAGGCA
switch fluorescence ratio: 1.06

TTTGGCAACG
switch fluorescence ratio: 1.02

TCTTGGATTG
switch fluorescence ratio: 1.02

ATAATGCGT
switch fluorescence ratio: 0.985

CTAGACGGAT
switch fluorescence ratio: 1.04

GTTTACTCGA
switch fluorescence ratio: 1.01

TTAACGGCCC
switch fluorescence ratio: 1.91

GCTTGGGTCA
switch fluorescence ratio: 0.994

GGTTCTGGAA
switch fluorescence ratio: 0.991

CATAGTTCCT
switch fluorescence ratio: 1.01

Source: the supplement of paper PMC10126150
